# Test results from PubChem BioAssay AID504339 (National Center for Advancing Translational Sciences (NCATS), 2011).
# Out of some 390,000 compounds screened, about 17,000 (4.4%) were called active. Inconclusive results, whose numbers are uncertain, are shown with a selection of clear calls. Calls come from the whole dose curve; as a rule, active = well fitted inhibition curve with a large enough effect; inconclusive = small, poorly fitted or top-dose-only effect; inactive = no such curve, though single readings can be large or run the other way. A potency beside an inconclusive call is a rough fit, not a confirmed value.
# Target: Lysine-specific demethylase 4A (Homo sapiens) (UniProt O75164)
# Sequence of UniProt O75164 (O75164 whole entry, looked up, the tested form may be a part): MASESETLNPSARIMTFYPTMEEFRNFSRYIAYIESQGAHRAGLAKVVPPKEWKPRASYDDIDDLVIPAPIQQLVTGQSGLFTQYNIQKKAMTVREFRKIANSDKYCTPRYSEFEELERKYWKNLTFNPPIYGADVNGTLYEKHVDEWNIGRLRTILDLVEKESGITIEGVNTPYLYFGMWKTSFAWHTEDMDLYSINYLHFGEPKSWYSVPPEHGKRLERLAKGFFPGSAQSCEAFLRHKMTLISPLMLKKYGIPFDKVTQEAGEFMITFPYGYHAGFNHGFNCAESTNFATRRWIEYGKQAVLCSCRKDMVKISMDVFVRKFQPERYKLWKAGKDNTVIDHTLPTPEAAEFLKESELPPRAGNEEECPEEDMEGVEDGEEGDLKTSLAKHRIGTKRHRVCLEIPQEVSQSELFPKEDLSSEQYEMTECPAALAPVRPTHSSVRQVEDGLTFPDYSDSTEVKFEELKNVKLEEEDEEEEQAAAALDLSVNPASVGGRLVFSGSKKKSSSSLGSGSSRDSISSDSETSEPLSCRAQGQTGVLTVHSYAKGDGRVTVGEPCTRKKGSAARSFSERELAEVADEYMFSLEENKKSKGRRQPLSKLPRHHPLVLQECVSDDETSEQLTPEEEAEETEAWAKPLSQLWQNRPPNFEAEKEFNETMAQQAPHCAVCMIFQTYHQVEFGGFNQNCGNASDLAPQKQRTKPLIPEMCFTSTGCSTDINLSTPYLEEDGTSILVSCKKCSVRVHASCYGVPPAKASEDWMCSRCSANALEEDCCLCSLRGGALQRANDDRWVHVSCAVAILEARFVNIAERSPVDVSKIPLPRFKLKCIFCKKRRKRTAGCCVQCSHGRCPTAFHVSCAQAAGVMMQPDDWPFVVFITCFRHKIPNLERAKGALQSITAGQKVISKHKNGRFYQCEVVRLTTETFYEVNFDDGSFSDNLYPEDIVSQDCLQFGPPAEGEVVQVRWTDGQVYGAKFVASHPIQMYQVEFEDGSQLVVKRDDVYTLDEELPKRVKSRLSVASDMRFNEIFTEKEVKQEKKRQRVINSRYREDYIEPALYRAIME
# Experiment: qHTS Assay for Inhibitors of JMJD2A-Tudor Domain; note: nearly all actives have a fitted effect of over 50% in size
# Conditions: AlphaScreen JMJD2A-Tudor / H3K4me3 peptide binding; activity change, negative = inhibition: at 114 µM (top of the series)
# % is set by controls: 0 for no effect and ±100 for the full control effect; potency is the fitted concentration of half-maximal effect; tags give direction and shape of the fitted curve.
Structure (SMILES),Potency,"activity change, negative = inhibition"
NC(=O)c1c(N)sc(=S)n1CC1CCCO1 (stereo unspecified),"inconclusive: 70.8 µM [inhibitor, partial curve]",
COc1ccccc1N1CCN(C(=S)Nc2ccc3nc(N4CCOCC4)cc(C)c3c2)CC1,,inconclusive: -49.6% [inhibitor]
CCOC(=O)CN1C(=O)S/C(=C/C=C/c2ccc(N(C)C)cc2)C1=O,active: 15.8 µM,
CCNc1nc(NCC)nc(N/N=C/c2ccc(N(C)C)cc2)n1,,inconclusive: -54% [inhibitor]
CCCSc1nc(C)c(-c2csc(C(C#N)=C3CCCC3)n2)cc1C#N,active: 50.1 µM,
O=S(=O)(c1ccc2c(c1)C(O)c1ccccc1CC2)C(F)(F)F (stereo unspecified),inactive,
CCOc1ccc(C=NNc2ccc(S(=O)(=O)Nc3ccccc3C(=O)O)cc2[N+](=O)[O-])cc1,active: 22.4 µM,
O=C(CN(C1CCCCC1)S(=O)(=O)c1ccccc1)NCc1ccco1,"inconclusive: 56.2 µM [inhibitor, partial curve]",
COc1cnc(-c2ccccn2)nc1Sc1ccc(C)cc1,"inconclusive: 89.1 µM [inhibitor, partial curve, poor fit]",
Cc1cc(O)c(C(c2ccccc2Cl)N2CCN(c3ccccc3)CC2)c(=O)n1Cc1ccco1 (stereo unspecified),"inconclusive: 50.1 µM [inhibitor, partial curve]",
Cn1nc(C(=O)Nc2ccc(S(=O)(=O)NCc3ccco3)cc2)c2ccccc2c1=O,"inconclusive: 28.2 µM [inhibitor, full curve]",
CC1=NN(c2cccc(C(=O)O)c2)C(=O)/C1=C\C=C\c1ccco1,active: 8.91 µM,
Cc1ccc(NC(=O)Cn2c(-c3ccc4c(c3)OCO4)cn(-c3ccccc3)c2=O)cc1,"inconclusive: 2 µM [inhibitor, full curve]",
COc1ccc(OC)c(NC(=S)NC(=O)c2ccc(Br)o2)c1,inactive,
Cc1ccc(Nc2nc(C(=O)NCc3ccco3)cs2)cc1,"inconclusive: 56.2 µM [inhibitor, partial curve]",
CCOC(=O)c1c(NC(=O)Cc2cccs2)sc(C)c1C,inactive,
Cc1ccc(C2SCC(=O)N2Cc2ccccc2)cc1 (stereo unspecified),inactive,
CCN(c1ccc(NC(=O)COC(=O)c2ccc(S(=O)(=O)N3CCCC3)cc2)cc1)C(C)C,inactive,
CCOC(=O)C1=C(O)/C(=C/c2cc(OC)c(OC)c(OC)c2)N=C1C,inactive,
CCN(CC)CCNC(=O)c1ccc(NC(=O)c2cccc(S(=O)(=O)N3CCc4ccccc43)c2)cc1,"inconclusive: 22.4 µM [inhibitor, full curve]",
CSc1nnc(C(C)(C)C)c(=O)n1/N=C/c1ccccc1,inactive,
CCCCCNC(=O)C(=O)NCC(c1ccc2c(c1)OCO2)N1CCOCC1 (stereo unspecified),inactive,
O=c1[nH]c(Nc2ccccc2)cc2ccccc12,"inconclusive: 79.4 µM [inhibitor, single point]",
CCNC(=O)c1ccccc1-c1nc(-c2ccccc2OC)no1,inactive,

Structure (SMILES),Potency,"activity change, negative = inhibition"
O=C(CSc1oc(-c2ccco2)nc1S(=O)(=O)c1ccc(Cl)cc1)c1ccc(Cl)cc1,"inconclusive: 56.2 µM [inhibitor, partial curve]",
CCOC(=O)/C(=N\Nc1ccc(Br)cc1)N1CC(C)OC(C)C1 (stereo unspecified),"inconclusive: 56.2 µM [inhibitor, partial curve]",
COc1ccc(/C=C2\SC(=S)N(CCCC(=O)N3CCN(C)CC3)C2=O)cc1,"inconclusive: 20 µM [inhibitor, partial curve]",
COc1ccc(CNC(=O)CC2N=C3c4ccccc4N=C(SCC(=O)Nc4ccc(N(C)C)cc4)N3C2=O)cc1 (stereo unspecified),"inconclusive: 56.2 µM [inhibitor, partial curve]",
O=C(NC(=S)NC1C2CC3CC(C2)CC1C3)C12CC3CC(CC(C3)C1)C2 (stereo unspecified),"inconclusive: 79.4 µM [inhibitor, single point]",
CC(=O)c1ccc(-n2c(CCC(=O)O)ccc2-c2ccc(Cl)cc2)cc1,inactive,
CC1=C(C(=O)Nc2ccc(C(=O)N3CCN(c4ccccc4F)CC3)cc2)SCCO1,"inconclusive: 50.1 µM [inhibitor, partial curve]",
CCN(CC)c1ccc(CNCc2cccs2)cc1,"inconclusive: 22.4 µM [inhibitor, full curve]",
COc1cc2c(cc1OC)C(c1ccc(Cl)cc1)N(c1ccc(C)c(F)c1)C(=O)C2 (stereo unspecified),"inconclusive: 50.1 µM [inhibitor, partial curve]",
Cc1cc(C(=O)N2CCC(Cc3ccccc3)CC2)c(C)o1,inactive,
CC(C)c1ccc(OCc2cc(=O)n3c4c(sc3n2)CCCC4)cc1,inactive,
Cn1nc(CC(=O)Nc2ccc3c(c2)OCCO3)c2ccccc2c1=O,inactive,
Cn1c(=O)c2c(nc(SCCCC#N)n2Cc2c(F)cccc2Cl)n(C)c1=O,inactive,
COc1cccc(-c2ocnc2C(=O)Nc2ccc(N3CCOCC3)cc2N2CCOCC2)c1,"inconclusive: 39.8 µM [inhibitor, partial curve]",
CC(C)Cn1c(N)c(C(=O)COC(=O)CC23CC4CC(CC(C4)C2)C3)c(=O)n(C)c1=O,inactive,
Cc1ccc(/C=N/n2c(-c3ccncc3)n[nH]c2=S)o1,active: 7.08 µM,
O=[N+]([O-])c1cccc(C=Nc2cccc3ccccc23)c1O,"inconclusive: 63.1 µM [inhibitor, partial curve, poor fit]",
Cc1ccc(NC(=O)C(=O)NCC(c2ccc3c(c2)OCO3)N2CCOCC2)c(C)c1 (stereo unspecified),inactive,
C#CCOCCOCCOCCNc1nc(N2CCN(C(=O)[C@H](CCCCN)n3cc([C@@H](N)C(C)CC)nn3)CC2)nc(N2CCN(C(=O)[C@H](Cc3ccc(O)cc3)n3cc([C@@H](N)C(C)CC)nn3)CC2)n1 (stereo partly specified),active: 44.7 µM,
O=C(NCc1ccccc1)c1ccc(CN2CCC(Cc3ccccc3)CC2)cc1,inactive,
COc1cccc(NC(=O)CCNC(=O)N2CC(=O)Nc3ccccc32)c1,inactive,
CC1(C)c2[nH]c3ccccc3c2C[C@H]2C(=O)N(Cc3cccc(F)c3)C(=O)N21,"inconclusive: 50.1 µM [inhibitor, partial curve]",
COC(=O)c1ccc(CN(c2ccc(C(=O)O)c(O)c2)S(=O)(=O)c2ccc(Cl)c([N+](=O)[O-])c2)cc1,"inconclusive: 12.6 µM [inhibitor, full curve]",
CCN(CC)c1ccc(NS(=O)(=O)c2ccc3c(c2)CCCN3C(C)=O)c(C)c1,active: 50.1 µM,

Structure (SMILES),Potency,"activity change, negative = inhibition"
CC1=C/C(=N\Nc2ccccc2[N+](=O)[O-])CC(C)(C)C1,active: 7.94 µM,
COc1cc2ccccc2cc1C(=O)N(CCN(C)C)c1nc2ccc(Br)cc2s1,"inconclusive: 25.1 µM [inhibitor, partial curve]",
O=C(NCCCN1CCN(c2ccc(F)cc2)CC1)C1CCCN(c2ncnc3c2nc2n3CCCCC2)C1 (stereo unspecified),"inconclusive: 63.1 µM [inhibitor, partial curve, poor fit]",
CC(C)(C)NS(=O)(=O)c1ccc2[nH]c3c(c2c1)CCCCC3,"inconclusive: 50.1 µM [inhibitor, partial curve]",
O=C(CN1C(=O)NC2(CCCC2)C1=O)OCCOc1ccc(Cl)cc1Cl,inactive,
CCCOC(=O)/C(=C\C=C\c1ccccc1)NC(=O)c1ccccc1,inactive,
COc1ccc2c(c1)NC(c1ccc(OCC(C)C)cc1)=NC(c1ccncc1)=N2,"inconclusive: 44.7 µM [inhibitor, partial curve]",
CCOC(=O)c1c(NC(=O)CSc2nnnn2-c2ccccc2)sc2c1CC(C)(C)NC2(C)C,"inconclusive: 56.2 µM [inhibitor, partial curve]",
COc1ccc(CCNc2oc(-c3ccc(OC)c(OC)c3)nc2C#N)cc1,"inconclusive: 50.1 µM [inhibitor, partial curve]",
Cc1cc(C(=O)N/N=C/c2cc(N=Nc3ccccc3)ccc2O)n[nH]1,"inconclusive: 31.6 µM [inhibitor, single point]",
CCOc1ccc(-c2n[nH]c3c2C(c2ccccc2OC)N(c2ccc(Br)cc2)C3=O)cc1 (stereo unspecified),"inconclusive: 8.91 µM [inhibitor, full curve, poor fit]",
CCc1ccc2[nH]c(=O)c(CN(CCCN3CCOCC3)C(=O)Nc3ccc(F)cc3)cc2c1,inactive,
Cc1ccccc1NC(=O)C1c2cccc[n+]2CC(=O)N1c1c(C)cccc1C (stereo unspecified),active: 50.1 µM,
CCc1nnc2c(NCc3ccc(F)cc3)nc3ccccc3n12,inactive,
CC1=CC(C)(C)Nc2ccc(OC(=O)C(Cc3ccccc3)N3C(=O)c4ccccc4C3=O)cc21 (stereo unspecified),"inconclusive: 56.2 µM [inhibitor, partial curve]",
O=C(CCCOc1ccc(Cl)cc1Cl)N/N=C/c1ccc(Cl)cc1,"inconclusive: 31.6 µM [inhibitor, single point]",
CCOc1ccc(OCCCC(=O)O)cc1,"inconclusive: 89.1 µM [inhibitor, partial curve, poor fit]",
C=CCNC(=O)/C(C#N)=C/c1c(N2CCCCCC2)nc2ccccn2c1=O,inactive,
COc1ccccc1N1CCN(S(=O)(=O)c2ccc(F)c(C(=O)Nc3ccc(C)c(F)c3)c2)CC1,"inconclusive: 56.2 µM [inhibitor, partial curve]",
Oc1ccccc1C=NCCN1CCN(CCN=Cc2ccccc2O)C1c1ccccc1O (stereo unspecified),active: 22.4 µM,
Cc1ccc(C(=O)CSc2nccn2-c2ccccc2)cc1,"inconclusive: 10 µM [inhibitor, partial curve]",
COc1ccc(OC)c(CCNC(=O)CCCC(=O)n2ncc3cc(C)ccc32)c1,inactive,
Cc1c(C(=O)NNC(=S)Nc2ccc(S(N)(=O)=O)cc2)oc2ccccc12,"inconclusive: 50.1 µM [inhibitor, partial curve]",
